The numbers were not newly measured in publication PMC7997640, “Potential anti-COVID-19 agents, cepharanthine and nelfinavir, and their usage for combination treatment” (iScience, 2021), which cites them from elsewhere.

This data set has as its system SARS-CoV-2 spike. Conditions: ref Musarrat et al., 2020; cited from earlier work.

Take `Cc1c(O)cccc1C(=O)N[C@@H](CSc1ccccc1)[C@H](O)CN1C[C@H]2CCCC[C@H]2C[C@H]1C(=O)NC(C)(C)C` [NFV, nelfinavir]: the “concentration inhibiting SARS-CoV-2 spike-mediated membrane fusion” value is “over 10 μM”.
